Results are given in words; binding and its absence hold for the method and conditions named. In cells and extracts the contact can be indirect. Some entries that bind do so weakly or less than the wild type.
Assays:
[1] = target: T1, endogenous IKKε (primary peritoneal macrophages) (mouse (endogenous in primary peritoneal macrophages)) (UniProt Q9R0T8); assay: co-IP; primary peritoneal macrophages, endogenous proteins, 2 h LPS treatment, with Smaducin-6 or scrambled peptide
T1 sequence: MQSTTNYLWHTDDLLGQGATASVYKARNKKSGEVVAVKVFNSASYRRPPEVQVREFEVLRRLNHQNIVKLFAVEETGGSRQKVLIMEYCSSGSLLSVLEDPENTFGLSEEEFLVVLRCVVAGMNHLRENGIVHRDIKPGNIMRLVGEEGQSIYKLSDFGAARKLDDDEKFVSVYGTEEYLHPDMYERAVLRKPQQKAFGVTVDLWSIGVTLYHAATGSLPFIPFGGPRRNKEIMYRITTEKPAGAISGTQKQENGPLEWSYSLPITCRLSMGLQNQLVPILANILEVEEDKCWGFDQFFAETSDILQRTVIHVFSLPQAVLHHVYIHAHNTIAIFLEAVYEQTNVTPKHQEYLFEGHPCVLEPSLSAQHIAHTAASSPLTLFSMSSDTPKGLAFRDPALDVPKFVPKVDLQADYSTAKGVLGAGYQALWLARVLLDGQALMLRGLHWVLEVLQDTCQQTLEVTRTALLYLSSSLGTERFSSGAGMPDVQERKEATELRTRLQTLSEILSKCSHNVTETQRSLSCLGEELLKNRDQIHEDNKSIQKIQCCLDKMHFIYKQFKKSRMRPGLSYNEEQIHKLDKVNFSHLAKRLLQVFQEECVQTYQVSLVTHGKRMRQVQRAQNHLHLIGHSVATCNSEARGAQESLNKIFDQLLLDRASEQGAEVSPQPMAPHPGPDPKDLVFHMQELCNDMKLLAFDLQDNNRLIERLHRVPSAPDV

Sequences of proteins named here, by UniProt entry; tags and fusion partners are left off.
UniProt Q62406: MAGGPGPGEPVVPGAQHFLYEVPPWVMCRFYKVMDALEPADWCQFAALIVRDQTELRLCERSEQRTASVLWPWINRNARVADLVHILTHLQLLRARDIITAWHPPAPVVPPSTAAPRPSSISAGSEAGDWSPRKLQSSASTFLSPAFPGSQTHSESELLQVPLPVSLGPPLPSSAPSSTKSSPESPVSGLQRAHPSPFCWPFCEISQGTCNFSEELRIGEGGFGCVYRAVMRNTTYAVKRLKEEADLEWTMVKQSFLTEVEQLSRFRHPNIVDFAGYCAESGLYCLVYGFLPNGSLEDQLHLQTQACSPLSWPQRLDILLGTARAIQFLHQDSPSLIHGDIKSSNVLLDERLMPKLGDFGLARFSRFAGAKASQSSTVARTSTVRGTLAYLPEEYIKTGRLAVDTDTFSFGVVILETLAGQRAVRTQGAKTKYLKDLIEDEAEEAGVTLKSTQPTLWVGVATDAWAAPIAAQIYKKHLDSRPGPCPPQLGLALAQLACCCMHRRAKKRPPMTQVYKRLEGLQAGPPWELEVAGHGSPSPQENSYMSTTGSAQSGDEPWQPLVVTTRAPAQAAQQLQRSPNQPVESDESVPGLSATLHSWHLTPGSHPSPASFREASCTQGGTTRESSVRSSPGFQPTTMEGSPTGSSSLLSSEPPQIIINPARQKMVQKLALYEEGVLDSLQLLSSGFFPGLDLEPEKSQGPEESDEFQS

[2] = target: endogenous IRAK1 (primary peritoneal macrophages) (mouse (endogenous in primary peritoneal macrophages)) (UniProt Q62406); assay: as above
[3] = target: T2, endogenous RIP1 (primary peritoneal macrophages) (mouse (endogenous in primary peritoneal macrophages)) (UniProt Q60855); assay: as above
T2 sequence: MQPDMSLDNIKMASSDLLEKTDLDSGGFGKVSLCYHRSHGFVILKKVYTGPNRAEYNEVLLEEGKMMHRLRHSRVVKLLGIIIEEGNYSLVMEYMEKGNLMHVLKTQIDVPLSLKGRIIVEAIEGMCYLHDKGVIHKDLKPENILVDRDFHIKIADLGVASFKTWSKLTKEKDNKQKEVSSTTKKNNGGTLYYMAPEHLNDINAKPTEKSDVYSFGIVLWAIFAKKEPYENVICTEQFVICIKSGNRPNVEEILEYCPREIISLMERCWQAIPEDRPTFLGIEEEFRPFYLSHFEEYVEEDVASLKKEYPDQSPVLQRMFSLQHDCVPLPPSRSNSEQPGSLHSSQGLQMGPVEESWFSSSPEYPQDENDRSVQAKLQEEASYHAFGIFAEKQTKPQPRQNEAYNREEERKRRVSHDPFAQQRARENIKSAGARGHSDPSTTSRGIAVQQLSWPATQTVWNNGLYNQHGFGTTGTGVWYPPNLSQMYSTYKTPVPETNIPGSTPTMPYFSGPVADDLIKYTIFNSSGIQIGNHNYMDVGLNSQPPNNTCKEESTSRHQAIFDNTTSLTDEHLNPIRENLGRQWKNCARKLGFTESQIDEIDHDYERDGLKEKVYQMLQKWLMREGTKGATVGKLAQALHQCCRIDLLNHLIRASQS

[4] = target: T3, Pellino-1 (Supplementary Fig S1, cells not stated) (UniProt Q8C669); assay: co-IP; immunoprecipitation assays with TGF-β1-induced Smad6 (Supplementary Fig S1); cells and antibodies not shown
T3 sequence: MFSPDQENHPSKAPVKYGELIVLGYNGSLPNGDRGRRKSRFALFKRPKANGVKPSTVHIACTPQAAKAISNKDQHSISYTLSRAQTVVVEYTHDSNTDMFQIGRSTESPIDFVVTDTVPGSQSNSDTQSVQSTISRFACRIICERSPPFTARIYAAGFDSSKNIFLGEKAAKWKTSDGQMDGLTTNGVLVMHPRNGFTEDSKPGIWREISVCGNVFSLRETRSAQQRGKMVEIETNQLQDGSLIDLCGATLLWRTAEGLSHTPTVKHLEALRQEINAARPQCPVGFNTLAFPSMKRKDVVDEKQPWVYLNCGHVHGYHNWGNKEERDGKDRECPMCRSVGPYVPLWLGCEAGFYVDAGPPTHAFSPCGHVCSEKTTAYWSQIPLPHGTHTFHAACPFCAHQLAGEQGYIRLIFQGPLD

[5] = target: T4, IKKε/TBK1 complex (Supplementary Fig S1, cells not stated) (UniProt Q9R0T8); assay: as above
T4 sequence 1: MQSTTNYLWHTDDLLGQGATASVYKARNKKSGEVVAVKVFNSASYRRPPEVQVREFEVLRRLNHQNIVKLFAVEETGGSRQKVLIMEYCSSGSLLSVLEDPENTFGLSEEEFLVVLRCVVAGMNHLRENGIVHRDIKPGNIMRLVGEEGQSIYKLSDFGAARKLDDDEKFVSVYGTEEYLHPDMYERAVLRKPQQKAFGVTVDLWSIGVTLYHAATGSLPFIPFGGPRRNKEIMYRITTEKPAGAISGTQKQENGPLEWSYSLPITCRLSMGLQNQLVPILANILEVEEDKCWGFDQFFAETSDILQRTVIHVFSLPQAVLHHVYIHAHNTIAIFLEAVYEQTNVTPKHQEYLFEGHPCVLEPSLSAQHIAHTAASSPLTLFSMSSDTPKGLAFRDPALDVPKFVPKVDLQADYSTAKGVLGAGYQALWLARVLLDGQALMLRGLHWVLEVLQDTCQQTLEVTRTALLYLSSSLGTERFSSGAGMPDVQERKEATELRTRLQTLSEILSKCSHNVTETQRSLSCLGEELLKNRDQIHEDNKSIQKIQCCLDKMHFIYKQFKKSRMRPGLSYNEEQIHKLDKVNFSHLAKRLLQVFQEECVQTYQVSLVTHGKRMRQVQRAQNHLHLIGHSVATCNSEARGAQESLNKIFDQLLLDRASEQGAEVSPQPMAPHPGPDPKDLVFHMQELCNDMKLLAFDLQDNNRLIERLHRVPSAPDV
T4 sequence 2: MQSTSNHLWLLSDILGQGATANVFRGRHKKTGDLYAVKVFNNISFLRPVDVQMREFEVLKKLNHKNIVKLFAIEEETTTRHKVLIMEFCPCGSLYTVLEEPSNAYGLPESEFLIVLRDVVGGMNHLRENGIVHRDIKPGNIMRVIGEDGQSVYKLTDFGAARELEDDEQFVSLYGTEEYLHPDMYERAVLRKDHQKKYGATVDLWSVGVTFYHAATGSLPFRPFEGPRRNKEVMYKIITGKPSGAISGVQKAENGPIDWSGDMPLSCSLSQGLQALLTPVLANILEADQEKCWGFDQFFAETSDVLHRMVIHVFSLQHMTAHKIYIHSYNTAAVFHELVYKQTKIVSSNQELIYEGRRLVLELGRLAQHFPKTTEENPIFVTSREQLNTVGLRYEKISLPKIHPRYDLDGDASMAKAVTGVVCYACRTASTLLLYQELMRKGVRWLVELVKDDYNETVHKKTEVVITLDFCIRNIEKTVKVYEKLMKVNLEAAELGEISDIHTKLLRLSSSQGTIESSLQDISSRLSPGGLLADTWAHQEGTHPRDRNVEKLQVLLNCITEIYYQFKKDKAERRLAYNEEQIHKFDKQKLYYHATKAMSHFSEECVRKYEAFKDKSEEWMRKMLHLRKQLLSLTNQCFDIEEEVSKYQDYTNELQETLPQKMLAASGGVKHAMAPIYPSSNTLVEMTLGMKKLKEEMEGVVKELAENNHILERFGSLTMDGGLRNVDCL

[6] = target: T5, RIP1 (Supplementary Fig S1, cells not stated) (UniProt Q60855); assay: as above
T5 sequence: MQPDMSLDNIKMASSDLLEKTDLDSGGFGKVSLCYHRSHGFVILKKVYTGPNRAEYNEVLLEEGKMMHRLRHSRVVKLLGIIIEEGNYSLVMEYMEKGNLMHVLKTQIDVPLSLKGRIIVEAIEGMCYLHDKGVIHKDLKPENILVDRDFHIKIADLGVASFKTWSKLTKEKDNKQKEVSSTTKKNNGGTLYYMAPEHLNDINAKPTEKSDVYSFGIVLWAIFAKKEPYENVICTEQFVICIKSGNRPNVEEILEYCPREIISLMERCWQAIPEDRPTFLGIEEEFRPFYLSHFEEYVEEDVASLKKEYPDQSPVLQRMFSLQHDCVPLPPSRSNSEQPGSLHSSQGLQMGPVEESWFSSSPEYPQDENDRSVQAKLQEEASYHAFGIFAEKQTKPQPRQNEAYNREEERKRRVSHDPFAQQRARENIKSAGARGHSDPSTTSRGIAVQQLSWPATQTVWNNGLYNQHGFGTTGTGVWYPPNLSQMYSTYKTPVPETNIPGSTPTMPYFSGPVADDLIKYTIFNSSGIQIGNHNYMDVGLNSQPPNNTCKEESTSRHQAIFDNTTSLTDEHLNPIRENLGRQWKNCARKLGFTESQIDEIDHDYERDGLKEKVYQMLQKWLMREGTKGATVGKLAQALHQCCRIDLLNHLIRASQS

B1: endogenous Pellino-1 (mouse cells) (protein, UniProt Q8C669 1-418)
chain: MFSPDQENHPSKAPVKYGELIVLGYNGSLPNGDRGRRKSRFALFKRPKANGVKPSTVHIACTPQAAKAISNKDQHSISYTLSRAQTVVVEYTHDSNTDMFQIGRSTESPIDFVVTDTVPGSQSNSDTQSVQSTISRFACRIICERSPPFTARIYAAGFDSSKNIFLGEKAAKWKTSDGQMDGLTTNGVLVMHPRNGFTEDSKPGIWREISVCGNVFSLRETRSAQQRGKMVEIETNQLQDGSLIDLCGATLLWRTAEGLSHTPTVKHLEALRQEINAARPQCPVGFNTLAFPSMKRKDVVDEKQPWVYLNCGHVHGYHNWGNKEERDGKDRECPMCRSVGPYVPLWLGCEAGFYVDAGPPTHAFSPCGHVCSEKTTAYWSQIPLPHGTHTFHAACPFCAHQLAGEQGYIRLIFQGPLD
- binding [1]: binds
- binding [2]: binds
- binding [3]: binds

B2: TGF-β1-induced Smad6 (protein, UniProt O35182 1-495)
chain: MFRSKRSGLVRRLWRSRVVPDREEGSGGGGGVDEDGSLGSRAEPAPRAREGGGCSRSEVRSVAPRRPRDAVGPRGAAIAGRRRRTGGLPRPVSESGAGAGGSPLDVAEPGGPGWLPESDCETVTCCLFSERDAAGAPRDSGDPQARQSPEPEEGGGPRSREARSRLLLLEQELKTVTYSLLKRLKERSLDTLLEAVESRGGVPGGCVLVPRADLRLGGQPAPPQLLLGRLFRWPDLQHAVELKPLCGCHSFTAAADGPTVCCNPYHFSRLCGPESPPPPYSRLSPPDQYKPLDLSDSTLSYTETEATNSLITAPGEFSDASMSPDATKPSHWCSVAYWEHRTRVGRLYAVYDQAVSIFYDLPQGSGFCLGQLNLEQRSESVRRTRSKIGFGILLSKEPDGVWAYNRGEHPIFVNSPTLDAPGGRALVVRKVPPGYSIKVFDFERSGLLQHADAAHGPYDPHSVRISFAKGWGPCYSRQFITSCPCWLEILLNNHR
- binding [4]: binds

B3: Pellino-1 (Supplementary Fig S1, cells not stated) (protein, UniProt Q8C669 1-418)
chain: MFSPDQENHPSKAPVKYGELIVLGYNGSLPNGDRGRRKSRFALFKRPKANGVKPSTVHIACTPQAAKAISNKDQHSISYTLSRAQTVVVEYTHDSNTDMFQIGRSTESPIDFVVTDTVPGSQSNSDTQSVQSTISRFACRIICERSPPFTARIYAAGFDSSKNIFLGEKAAKWKTSDGQMDGLTTNGVLVMHPRNGFTEDSKPGIWREISVCGNVFSLRETRSAQQRGKMVEIETNQLQDGSLIDLCGATLLWRTAEGLSHTPTVKHLEALRQEINAARPQCPVGFNTLAFPSMKRKDVVDEKQPWVYLNCGHVHGYHNWGNKEERDGKDRECPMCRSVGPYVPLWLGCEAGFYVDAGPPTHAFSPCGHVCSEKTTAYWSQIPLPHGTHTFHAACPFCAHQLAGEQGYIRLIFQGPLD
- binding [5]: binds
- binding [6]: binds
